# According to PubChem BioAssay AID488969 (Vanderbilt High Throughput Screening Facility, 2010):
# The full ranking holds about 110,000 compounds; the median of “z-score” is about -0.1, and the highest 2% start at about 2. The list shows a part of the results. Active and inactive are the calls of the source.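 The calls were made as follows: active = z-score in the third read window above 3 or below -3; inactive = the rest.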
# Target: Metabotropic glutamate receptor 8 (Rattus norvegicus) (UniProt P70579)
# Chain of UniProt P70579 (P70579 whole entry, looked up): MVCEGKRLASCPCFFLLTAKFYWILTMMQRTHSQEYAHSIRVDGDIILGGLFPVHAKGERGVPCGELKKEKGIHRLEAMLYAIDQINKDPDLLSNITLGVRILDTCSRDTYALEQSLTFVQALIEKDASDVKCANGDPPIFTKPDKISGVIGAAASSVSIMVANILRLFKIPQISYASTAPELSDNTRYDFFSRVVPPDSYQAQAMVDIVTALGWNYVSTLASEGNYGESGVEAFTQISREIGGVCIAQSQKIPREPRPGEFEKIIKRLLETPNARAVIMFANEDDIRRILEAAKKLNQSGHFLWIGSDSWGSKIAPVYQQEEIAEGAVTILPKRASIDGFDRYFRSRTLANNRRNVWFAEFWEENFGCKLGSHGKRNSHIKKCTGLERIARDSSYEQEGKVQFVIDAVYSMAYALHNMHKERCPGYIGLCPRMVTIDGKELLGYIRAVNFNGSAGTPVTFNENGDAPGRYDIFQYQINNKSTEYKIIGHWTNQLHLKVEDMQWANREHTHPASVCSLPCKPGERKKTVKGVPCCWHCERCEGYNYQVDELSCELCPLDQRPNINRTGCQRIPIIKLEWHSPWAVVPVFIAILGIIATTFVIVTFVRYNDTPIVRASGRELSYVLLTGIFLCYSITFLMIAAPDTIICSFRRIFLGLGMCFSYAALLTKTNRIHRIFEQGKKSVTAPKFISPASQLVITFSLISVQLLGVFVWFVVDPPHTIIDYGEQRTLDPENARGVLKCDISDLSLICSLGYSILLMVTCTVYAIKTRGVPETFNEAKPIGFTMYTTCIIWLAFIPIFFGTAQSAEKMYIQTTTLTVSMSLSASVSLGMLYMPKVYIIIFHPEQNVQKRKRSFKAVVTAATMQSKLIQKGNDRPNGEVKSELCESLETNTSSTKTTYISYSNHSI
# Experiment: rat mGluR8 modulators via GIRK flux, primary screen, cell-based, thallium flux, HTS (AID 488969)
# Settings: HEK293 rat mGluR8, GIRK (G protein-gated inwardly rectifying potassium channel) thallium flux, FluoZin2; at 10 µM; stronger effect = higher value; submaximal glutamate (EC20) added with thallium
row,Structure (SMILES),z-score
1,COc1cccc(C(=O)Oc2ccccc2/C=C\C(=O)c2cc3ccccc3o2)c1,0.0598
2,COCCNC(=O)Cn1c(=O)n(C)c2ccccc21,-0.152
3,CCc1ccc(N2NC(=O)/C(=C/C=C/c3ccco3)C2=O)cc1,-0.31
4,C=CCn1c(CNC(=O)c2ccco2)nnc1SCC(=O)Nc1cccc(Br)c1,-0.0571
5,COC(=O)c1sc2nc(CN3CCN(c4ccc(OC)cc4)CC3)[nH]c(=O)c2c1C,-0.46
6,COc1ccc(N(CC(=O)NC2CCCCC2)S(=O)(=O)c2c(C)[nH]c(=O)[nH]c2=O)cc1,0.514
7,CCOC(=O)c1[nH]c(C)c(CN(CCc2ccc(OC)c(OC)c2)C(=O)CCCC(=O)O)c1C,-0.22
8,O=C(c1cc(C2CC2)nc2ccc(Br)cc12)N1N=C(C(F)F)CC1(O)C(F)F (stereo not given),-0.824
9,O=C(NCCCN1CCOCC1)c1cn(-c2ccccc2)nc1-c1cccs1,-0.0644
10,CC(C)CC(=O)Nc1ccc(C(=O)COc2ccc(-c3nnco3)cc2)cc1,0.387
11,CC(C)Cn1c(N2CCN(C(=O)c3cccs3)CC2)nc2ccccc21,-0.366
12,CC1CCCN(c2ccc(C(=O)NCc3cccs3)cn2)C1 (stereo not given),-0.135
13,CCOc1nc(C)nc(NC(=O)NS(=O)(=O)c2ccccc2Cl)n1,-0.786
14,CCOc1ccc(Cl)cc1/C=N/NC(=O)CNC(=O)c1ccccc1,-0.114
15,COc1ccc(C2NC(=O)N(C)C3=C2C(=O)CC(C)(C)C3)cc1OC (stereo not given),0.0627
16,O=c1c2ccccc2nc2n1C(CSCc1ccc(Cl)cc1Cl)CS2 (stereo not given),-0.188
17,CCOC(=O)c1cc(CC)sc1NC(=O)C(c1ccccc1)c1ccccc1,0.193
18,CC1CCCCC12NC(=O)N(CC(=O)NC1CCCc3ccccc31)C2=O (stereo not given),-0.469
19,O=c1c2ccccc2[nH]c(=S)n1CCCN1CCN(C2CCCCC2)CC1,active: 10.2
20,Cc1ccc(-c2nnn(CC(=O)N(CC3CCCO3)C(C(=O)NCC3CCCO3)c3ccc(F)cc3)n2)o1 (stereo not given),-0.0943
21,O=C(NC(=S)Nc1cc([N+](=O)[O-])ccc1Cl)c1ccccc1,active: 12.9
22,COc1cccc(-c2nc3cc(C)ccc3o2)c1,-0.333
23,Cc1ccc(C(=S)NCS(=O)(=O)c2ccc(C)cc2)cc1,-0.17
24,Cc1cc(C(F)F)n2nc(C(=O)Nc3ccc(S(=O)(=O)N4CCCCCC4)cc3)nc2n1,-0.0233
25,CCC(C)c1c(O)nc(SCC(=O)Nc2ccccc2)[nH]c1=O (stereo not given),-0.257
26,Cc1cc(C)n(-c2nc(O)cc(=O)[nH]2)n1,-0.0986
27,Cc1ccc(S(=O)(=O)N2CCCC2C(=O)n2nc(C)cc2C)cc1 (stereo not given),0.0898

row,Structure (SMILES),z-score
1,Cc1c(NC(=O)CSC2=C(C#N)C(c3ccccc3F)CC(=O)N2)c(=O)n(-c2ccccc2)n1C (stereo not given),0.0917
2,O=C(OCC(=O)N1CCCC1)c1ccco1,1.38
3,COc1cc2c(cc1NC(=S)NC(=O)c1c(OC)cccc1OC)oc1ccccc12,-0.162
4,Cn1c(=O)[nH]c(=O)c2c1nc(Br)n2CC(O)COc1ccccc1 (stereo not given),-0.0582
5,COC(=O)C1=C(C(=O)OC)SC(=C2C(=S)C(C)(C)N(C(=O)CC(C)C)c3ccccc32)S1,-0.622
6,COCCCN1C(=O)C(O)=C(C(=O)c2ccc(C)o2)C1c1cccc(Br)c1 (stereo not given),-1.85
7,CN(C)S(=O)(=O)N1CCC(C(=O)O)(c2ccccc2)CC1,-0.117
8,COc1cc(/C=N/NC(=O)c2cnccn2)cc(OC)c1OC,-0.244
9,O=C(CS(=O)(=O)c1c[nH]c2ccccc12)Nc1ccc2c(c1)OCCO2,0.777
10,COc1ccc(C(=O)Nc2ccc(C)cn2)c(OC)c1,-0.429
11,CCOC(=O)c1ccc(NC2c3ccccc3C(=O)N2c2ccccn2)cc1 (stereo not given),-0.0782
12,COc1ccc(C(c2nnnn2CCc2ccccc2)N2CCN(C3CCCC3)CC2)cc1OC (stereo not given),-0.433
13,CCN(CC)c1ccc(/C=N/OC(C)C(=O)Nc2ccc(C)cc2)cc1 (stereo not given),-0.337
14,CCCCN(C)C1=CC2=CC(=C(C#N)C#N)CCC2CC1 (stereo not given),active: 5.11
15,O=C1C(Cl)=C(Nc2ccccc2O)C(=O)N1c1ccccc1,0.0471
16,O=C(/C=C/c1ccccc1)CC(O)(c1ccccc1)C(F)(F)C(F)F (stereo not given),-0.207
17,O=C(CNC(=O)c1ccc([N+](=O)[O-])cc1)c1ccccc1,-0.124
18,CCOc1ccc(Nc2nc(CC(=O)OC)cc(=O)[nH]2)cc1,-0.00109
19,COc1cccc(/C=N/NC(=O)CCn2c3ccccc3c3ccccc32)c1,0.0557
20,CCOc1cc(N2CCOCC2)c(OCC)cc1NC(=O)COC(=O)[C@H](Cc1c[nH]c2ccccc12)NC(C)=O,0.243
21,COc1ccc(Nc2nc(Nc3ccc(OC)cc3)nc(-n3[nH]c(=O)c(C)c3C)n2)cc1,-0.186
22,CC(=O)c1cn(CC(=O)NCc2ccco2)c2ccccc12,-0.774
23,COCCCNC(=S)NNC(=O)c1ccc2c(c1)OCO2,0.142
24,COc1ccc(NC(=O)CSc2nnc(-c3ccccc3)n2N)cc1,-0.42
25,Cc1ccccc1NC(=O)CN1C(=O)NC(C)(c2ccc3c(c2)OCO3)C1=O (stereo not given),0.0574
26,COc1ccc(C=NCCC2(O)CC(C)N(C)CC2C)cc1 (stereo not given),0.0407
27,CCOC(=O)c1ccc(NC(=O)C2(c3ccccc3)CCCC2)cc1,0.405

row,Structure (SMILES),z-score
1,CCCCc1nc2n[nH]c(N)c2c2c1CSC(C)(C)C2,-0.471
2,COc1ccc(C(C(=O)NC2CCCCC2)N(C(=O)CCl)c2ccccc2Cl)cc1 (stereo not given),0.0511
3,CC(=O)Nc1sc(C)c(C)c1C(=O)Nc1ccc(C)cc1,-0.207
4,Fc1ccc(OCc2nc(-c3ccc(Br)o3)no2)c(F)c1,-0.191
5,COc1ccc(Cc2c(O)nc(SCC(=O)N3CCCCCC3)[nH]c2=O)cc1,-0.345
6,O=C(c1cnc2n(c1=O)CCS2)N1CCN(c2ccc(Cl)c(Cl)c2)CC1,-0.83
7,COc1ccc(N(CC(=O)O)S(=O)(=O)c2c(C)n[nH]c2C)cc1,-0.105
8,CN(C)/C=N/c1nc2ccc3c(c2s1)CCCC3,-0.171
9,NC(=O)c1ccccc1NC(=O)CCN1C(=O)c2ccccc2C1=O,0.146
10,Cc1csc(Sc2nc3c(c(=O)[nH]c(=O)n3C)n2Cc2ccccc2Cl)n1,0.426
11,CCOC(=O)C(NC(=O)CC)(Nc1nc2c(s1)CCCC2)C(F)(F)F (stereo not given),-0.0129
12,O=C(COC(=O)[C@H](Cc1ccccc1)NC(=O)c1cccs1)Nc1ccccc1C(F)(F)F,-0.389
13,C/C(Cc1ccccc1)=N\NC(=O)CNC(=O)c1ccc(C(C)(C)C)cc1,-0.163
14,Cc1cccc2cc(C(c3nnnn3C(C)(C)C)N3CCN(C(=O)c4ccco4)CC3)c(=O)[nH]c12 (stereo not given),0.516
15,Cc1cc(C(=O)NC(=S)Nc2ccccc2N2CCOCC2)ccc1[N+](=O)[O-],0.86
16,Cc1ccc(/C=N\NC(=O)Cn2nnc3ccccc32)o1,-0.116
17,Cc1nc(NC2=NCN(C3CCCCC3C)CN2)nc2ccccc12 (stereo not given),-0.214
18,COc1cccc(NC(=O)CCSc2ccc3ccccc3n2)c1,-0.0656
19,Cc1cc(C)cc(OCC(=O)Nc2ccc3c(c2)C(=O)c2ccccc2C3=O)c1,-0.124
20,COc1ccc(NC(=O)C2CCC(C(C)(C)C)CC2)cc1S(=O)(=O)N1CCCCC1 (stereo not given),0.369
21,CCc1nc2n[nH]c(N)c2c2c1CCCC2,0.621
22,CC(C)(Oc1ccc(Cl)cc1)C(=O)Nc1ccc2oc(-c3ccncc3)nc2c1,0.196
23,O=C(O)C(Cc1c[nH]c2ccccc12)NS(=O)(=O)c1cccc2nsnc12 (stereo not given),0.00264
24,CCOC(=O)c1c(NC2=NS(=O)(=O)c3ccccc32)sc2c1CCCCC2,-0.637
25,CC(C)(C)N1C(=O)c2ccccc2NC(=O)N1Cc1ccc(Br)cc1,-0.274
26,CCC(=O)Nc1ccc2c(c1)C(=O)N(C)C2=O,-0.189
27,C=CCn1c2ccccc2c2nnc(SCC(=O)Nc3c(C)n(C)n(-c4ccccc4)c3=O)nc21,-0.52

row,Structure (SMILES),z-score
1,O=C(CSc1nnc(-c2ccco2)o1)NC(=O)Cc1ccccc1,-0.213
2,COc1ccc(-c2nnc(SCC(=O)c3ccc(C)o3)o2)cc1,-0.153
3,Cc1ccc(-n2nnnc2SCC(=O)c2cc(C)n(-c3cc(C)on3)c2C)c(C)c1,-1.43
4,COC(=O)c1ccc(N/C=C/C(=O)c2ccc(OC)c(OC)c2)cc1,0.868
5,O=C(COC(=O)C12CC3CC(CC(O)(C3)C1)C2)NC(=O)NCc1ccco1,-0.0573
6,O=C(CSc1nnc2n(C3CCCCC3)c(=O)c3ccccc3n12)OC1CCCCC1,-0.124
7,CCc1ccc(-c2cc(C(=O)Nc3ccc(S(=O)(=O)NC(C)=O)cc3)c3ccccc3n2)cc1,-0.146
8,O=C(NCc1ccc(C(F)(F)F)cc1)C1CC(c2ccccc2[N+](=O)[O-])=NO1 (stereo not given),-0.239
9,Cn1c(CCNC(=O)c2ccc(F)cc2)nc2ccccc21,-0.117
10,Cc1cccc(N2CC(C(=O)Nc3nnc(SCC(=O)Nc4nccs4)s3)CC2=O)c1 (stereo not given),-0.265
11,O=C(NCCCN1CCCCC1)c1ccc2c(=O)n(CCc3ccccc3)c(=O)[nH]c2c1,1.16
12,CCc1sc(C(=O)Nc2cccc(C(C)=O)c2)cc1C,0.0168
13,CC(O)CN(Cc1cccc(Cl)c1)CC(C)O (stereo not given),0.0395
14,COc1ccc(NC(=O)c2cc(-c3ccccc3)oc2C)cc1,-0.319
15,CC(C)COc1ccc(C(=O)Nc2ccccc2[N+](=O)[O-])cc1,1.01
16,COC(=O)[C@H](CC(C)C)NC(=O)Nc1cccc(Br)c1,-0.0767
17,CCOC(=O)CSc1nc2ccc(S(=O)(=O)N3CCOCC3)cc2[nH]1,0.137
18,CCOc1ccc(C(=O)Cc2ccc3oc(C(=O)O)cc3c2)c(O)c1,-0.52
19,c1ccc(CN2c3ccccc3-c3nc4ccccc4n3C2c2ccccn2)cc1 (stereo not given),-0.213
20,O=c1cc(CSc2nnc(Nc3ccccc3)s2)nc2sccn12,-0.432
21,COc1ccc(C(=O)N2CCc3ccccc32)cc1,-0.92
22,CCOC(=O)Cc1nnn(CC(=O)OCC)n1,-0.295
23,Cc1nn(-c2ccccc2)c2c1C(c1ccc(Cl)cc1)N(c1ccccc1)C(=O)N2 (stereo not given),-0.561
24,O=C(O)c1ccc(Cl)c(NC(=O)C2CCCN2S(=O)(=O)c2cccc3nsnc23)c1 (stereo not given),-0.592
